According to the supplement of paper PMC10126150:
Sequences with one replicate were seen in a single cluster, so their values are uncertain.

System: ATP
Assay: switch fluorescence ratio, 500 uM ATP over buffer (Cy3 cluster intensity, sum of 5 cycles each) (fold (ratio)); higher = stronger signal-on switching upon ATP binding; sequences stand for … in TCGTCGGCAGCGTCAGATGTGTATAAGAGACAGTTTTTTTTTTTTTTTTTTTTTTTTT…TC
Details: aptamer strand: ATP DNA aptamer (quencher-CACCTGGGGGAGTATTGCGGAGGAAGG + anchor), 100 nM annealed; ATP concentration: 500 uM; one replicate
Procedure, shortened: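 For every switch-domain sequence, the fluorescence ratio is the mean of per-cluster values, each being summed target-cycle Cy3 intensity over summed buffer-cycle Cy3 intensity. Clusters outside 100-1000 RFU were excluded. On a modified Illumina MiSeq flow-cell, the Cy3-labelled switching-strand clusters were annealed to 100 nM quencher-labelled ATP aptamer, imaged in selection buffer and then after 15 min with 500 uM ATP at 22 °C. Five such cycles were run, with NaOH stripping and re-annealing between them.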
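Further: ATP exposure 15 min at 22 °C before imaging.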

| Sequence | switch fluorescence ratio |
| --- | --- |
| AATATCCATG | 0.954 |
| AATATCCGAG | 1.04 |
| AATATGTTGG | 0.964 |
| AATATTGGTC | 0.964 |
| AATATTTCAG | 0.978 |
| AATCAACGAG | 1.01 |
| AATCAGAAGG | 1.02 |
| AATCAGATCC | 1.02 |
| AATCAGCACG | 1.07 |
| AATCAGCTGG | 1.05 |
| AATCAGTACG | 1.02 |
| AATCAGTGCC | 0.981 |
| AATCATGCCC | 1.05 |
| AATCATGGCC | 0.997 |
| AATCATTACG | 0.935 |
| AATCCAGTA | 0.949 |
| AATCCATCGA | 0.97 |
| AATCCATGTT | 1.01 |
| AATCCCTATA | 1.02 |
| AATCCCTGTG | 1.04 |
| AATCCTGAAA | 1.03 |
| AATCGAATAC | 2.25 |
| AATCGACTTT | 0.996 |
| AATCGCTCTC | 1.03 |
| AATCGGTAAA | 1.01 |
| AATCGTGAGT | 0.996 |

| Sequence | switch fluorescence ratio |
| --- | --- |
| AATCGTGCGA | 0.985 |
| AATCGTGTGG | 0.901 |
| AATCTAAGGC | 1.01 |
| AATCTATGAA | 1.02 |
| AATCTCCCGA | 1.02 |
| AATCTGATTC | 1.01 |
| AATCTTCGCG | 1.01 |
| AATCTTGCCA | 0.996 |
| AATCTTGGCA | 1.05 |
| AATGAAGCGG | 0.997 |
| AATGAATAAT | 1 |
| AATGAATGGA | 1.06 |
| AATGACAAGT | 1.02 |
| AATGAGTTAT | 0.989 |
| AATGATATGT | 0.942 |
| AATGATATTT | 1.02 |
| AATGATGAC | 1.06 |
| AATGATTCAT | 1 |
| AATGCAGTA | 0.981 |
| AATGCATCAC | 1.11 |
| AATGCTAAGT | 1 |
| AATGCTGAGC | 1 |
| AATGCTGCCG | 0.982 |
| AATGGCGGAT | 0.997 |
| AATGGGGAGA | 1.05 |
| AATGGGTGT | 1.01 |

| Sequence | switch fluorescence ratio |
| --- | --- |
| AATGGGTTTC | 0.99 |
| AATGGTATTA | 0.999 |
| AATGGTGGG | 0.999 |
| AATGGTTAGG | 0.97 |
| AATGTACTT | 1.1 |
| AATGTCACAA | 1.09 |
| AATGTCCAAT | 1.02 |
| AATGTCTCCG | 1.09 |
| AATGTGAGTG | 1.04 |
| AATGTGCTAA | 1 |
| AATGTTCGT | 0.998 |
| AATGTTTCAT | 0.97 |
| AATTACAACT | 1.03 |
| AATTACAGGA | 1.02 |
| AATTACCCCA | 1.29 |
| AATTACTGAT | 0.992 |
| AATTAGCAGC | 1.01 |
| AATTAGGACG | 1 |
| AATTAGTCAC | 1.04 |
| AATTAGTCGC | 1.03 |
| AATTAGTGAA | 0.988 |
| AATTAGTTAC | 1.02 |
| AATTATCCGT | 1 |
| AATTATCTAT | 1.03 |
| AATTATTGTG | 0.964 |
| AATTATTTCT | 1.05 |

| Sequence | switch fluorescence ratio |
| --- | --- |
| AATTCAGGTA | 1.05 |
| AATTCGCAGA | 1.07 |
| AATTCGGAA | 1.05 |
| AATTCGGTTG | 1 |
| AATTCGTAAG | 1 |
| AATTCGTGGA | 1.01 |
| AATTGAAGGA | 1.02 |
| AATTGCCCGG | 1.02 |
| AATTGCCTCG | 0.97 |
| AATTGCGGAA | 0.974 |
| AATTGCGGCT | 0.961 |
| AATTGCTTTA | 1.02 |
| AATTGGAGAG | 1.01 |
| AATTGGGGC | 1.05 |
| AATTGTCCCT | 0.999 |
| AATTGTGTTA | 1.01 |
| AATTTAAGCA | 1.02 |
| AATTTACCTA | 1.08 |
| AATTTAGTAC | 0.98 |
| AATTTGCACC | 1.02 |
| ACAAACCGAA | 1.17 |
| ACAAACCTAG | 1.15 |
| ACAAAGGCAT | 1 |
| ACAAAGTAGC | 0.989 |
| ACAAAGTTGA | 0.986 |
| ACAACAAGAC | 1.63 |

| Sequence | switch fluorescence ratio |
| --- | --- |
| ACAACAGCGG | 1.04 |
| ACAACAGCTT | 1.01 |
| ACAACATGCG | 0.992 |
| ACAACCCCGC | 1.41 |
| ACAAGACAGG | 0.999 |
| ACAAGAGAAC | 1.05 |
| ACAAGAGCGG | 1.02 |
| ACAAGATCG | 0.99 |
| ACAAGCGGTA | 1.04 |
| ACAAGCTTGA | 1.01 |
| ACAAGGTGAG | 0.966 |
| ACAATAAGCG | 1.05 |
| ACAATAATAC | 2.48 |
| ACAATACATT | 1.12 |
| ACAATCCC | 1.18 |
| ACAATCCGAA | 1.01 |
| ACAATGCAAG | 0.975 |
| ACAATGTTAA | 0.988 |
| ACAATTGGGT | 1.01 |
| ACAATTTCGC | 1.07 |
| ACACAACTGG | 1.23 |
| ACACAAGAGC | 0.98 |
| ACACAAGCAG | 1.09 |
| ACACAAGTCT | 1.03 |
| ACACACGGGG | 1.59 |
| ACACATGGCG | 0.981 |

| Sequence | switch fluorescence ratio |
| --- | --- |
| ACACATTCTA | 1.04 |
| ACACCACAGT | 1.44 |
| ACACCCCCAA | 3.52 |
| ACACCCGAGC | 1.07 |
| ACACCCTAGT | 1.14 |
| ACACCGGCAT | 1.19 |
| ACACCTACGG | 1.25 |
| ACACGAGCAG | 1.07 |
| ACACGATGTC | 1.11 |
| ACACGCCCGC | 1.19 |
| ACACGGAGGC | 0.976 |
| ACACGGGAGT | 0.976 |
| ACACTAGCGT | 1.06 |
| ACACTATGAT | 1.04 |
| ACACTGGTGT | 1.08 |
| ACACTTAGGT | 1.04 |
| ACAGAAAACA | 0.991 |
| ACAGAATGCG | 1.07 |
| ACAGAGCTTG | 1.02 |
| ACAGAGTTCA | 0.982 |
| ACAGCGACCT | 1.32 |
| ACAGCGGA | 1.1 |
| ACAGCGGAAA | 1.03 |
| ACAGCGGCGT | 1.02 |
| ACAGCGGGAT | 1.03 |
| ACAGCTCCTT | 1.04 |

| Sequence | switch fluorescence ratio |
| --- | --- |
| ACAGCTGCGG | 0.975 |
| ACAGCTGGCC | 0.96 |
| ACAGCTGGTT | 0.957 |
| ACAGCTGTGA | 1.02 |
| ACAGCTTTTG | 1 |
| ACAGGACCCA | 1.11 |
| ACAGGATCT | 0.979 |
| ACAGGATTG | 0.955 |
| ACAGGCAGCT | 0.993 |
| ACAGGCGCCT | 1 |
| ACAGGGATGC | 0.98 |
| ACAGGGTAT | 1.01 |
| ACAGGGTTTT | 1.01 |
| ACAGGTCTG | 0.982 |
| ACAGTATTTT | 1.09 |
| ACAGTCAATG | 0.997 |
| ACAGTGGATG | 0.935 |
| ACAGTGGGTC | 1.01 |
| ACAGTGTGCA | 0.988 |
| ACAGTTATGT | 0.979 |
| ACAGTTGTTT | 1.06 |
| ACAGTTTACA | 1.11 |
| ACATAAAG | 0.982 |
| ACATAAGAGC | 1.05 |
| ACATAAGCCT | 1.27 |
| ACATACAAGC | 1.32 |

| Sequence | switch fluorescence ratio |
| --- | --- |
| ACATACCACG | 1.37 |
| ACATAGCGAT | 1.96 |
| ACATAGGTCC | 1.04 |
| ACATATGTCG | 1.01 |
| ACATCCTCCT | 1.23 |
| ACATCTAATA | 1.05 |
| ACATCTAGCA | 1.01 |
| ACATCTCTTA | 1.04 |
| ACATGCTGCC | 1.04 |
| ACATGGTGCT | 1.05 |
| ACATGGTGGA | 1.03 |
| ACATGTTTCG | 0.988 |
| ACATTCAGCT | 1.02 |
| ACATTCTTTG | 0.996 |
| ACATTGAGTT | 0.955 |
| ACATTGCAGG | 0.989 |
| ACATTGTCCT | 1.05 |
| ACATTTCATT | 1.01 |
| ACATTTGGCC | 1.02 |
